Reference: the supplement of paper PMC11417369
± gives the standard deviation of the averaged measurements. The list shows a part of the results.

System: PfAP2-LT AP2 domain (GST-tagged)
Experiment: gcPBM binding intensity (ln(normalized median fluorescence intensity)); higher = stronger DNA binding
Method in brief: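 Each value is the highest Masliner-normalised natural-log median intensity across replicate spots of either orientation of a probe. The probes were primer-extended double-stranded 36-bp intergenic genomic sequences on an Agilent 4 × 180k array, alongside negative controls, exposed for 1 h to GST-tagged P. falciparum DNA-binding domains expressed in E. coli. Bound protein was picked up with Alexa488 anti-GST antibody and scanned at 488 nm.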

Row | Sequence | gcPBM binding intensity (ln)
1 | GTGCCATTTAAAAAATGTACAAGAAAATGTTCATCA [XGTACX_site2865] | 8.54 ± 0.44
2 | ACCAAAAAAAAAAAAAAAAAAATATACATATATATA [GTGCAC_negctrl_site582] | 8.47 ± 0.48
3 | TTTTTTTTGGTATAATGTACATTTTCACTTATGTAT [XGTACX_site3259] | 9.05 ± 0.58
4 | ACATATGTTAAAAAGGCATGCATTCTTTTTATTTTA [TGCATGCA_site1043] | 8.72 ± 0.43
5 | ATTTTATTTTCTCACACACACATATATATATATATA [CACACA_site5781] | 9.59 ± 0.21
6 | GCAACACAAAAAATTACACACAAAAAAAATATATTA [CACACA_site916] | 9.18 ± 0.52
7 | CAGCTCTTAAGAATTACACACATATACACATATATA [CACACA_site7524] | 9.04 ± 0.38
8 | ATACATAAATACAAACGTACATACATACATACATAC [XGTACX_site7824] | 9.35 ± 0.35
9 | GAAGAAAAAAAATATACACACATACGATCATACATA [CACACA_site5227] | 9.21 ± 0.33
10 | TCCTTTATTTTTAAAGTGCATATACATGTACATTAT [GTGCAC_site9445] | 8.85 ± 0.41
11 | TTTTAATGTACCAGTGTGCACCTTGCGTACATATTA [GTGCAC_site9957] | 8.99 ± 0.42
12 | AATAATATATATATAATACACACTATTATAATCACA [CACACA_site1310] | 8.91 ± 0.38
13 | ATTCAAAAGATGTATACACACATGTGTATAATATAA [CACACA_site7197] | 9.42 ± 0.37
14 | TTATACAAATTCATGGGTACAAACAAACATATATCA [XGTACX_site6237] | 8.94 ± 0.35
15 | TATACCTATAAATACACACACATATAAATAAATATA [CACACA_site6153] | 9.43 ± 0.3
16 | AAAATATATACTCCATCACACACCAAAAAGAAAAAA [CACACA_site2542] | 9.15 ± 0.41
17 | AATAATAAAAAATATACACACATATATATATATATA [CACACA_site25] | 9.6 ± 0.28
18 | GCTTATAAAGGCAGAAGTACTGTATTCCTATATATA [XGTACX_site8865] | 8.72 ± 0.43
19 | AAAAAAAAAAAAAAATGTACATATGGTATGCATATA [XGTACX_site3225] | 8.77 ± 0.52
20 | TTGGCATACGGACACACACACACACCCAGACATATA [CACACA_site4492] | 9.84 ± 0.18
21 | GTAGTAAATAGGAGGATGCATATGGCACACATTATA [TGCATGCA_negctrl_site59] | 9.11 ± 0.64
22 | ATATAAAAATTAAAATGTACATATCTTATTATAATA [XGTACX_site983] | 8.56 ± 0.54
23 | GTTTAAAAAAATTATCAACTTTAAAAAGGTAACATT [XGTACX_negctrl_site203] | 8.41 ± 0.32

Row | Sequence | gcPBM binding intensity (ln)
24 | CAACATAAAAATTAAGCATGCAATAGACTTGTGTTG [TGCATGCA_site417] | 9.08 ± 0.41
25 | TAATAAAATAATATCACACATATTTATATATATTAT [CACACA_site5814] | 8.63 ± 0.44
26 | CACGCATACGGACACACACACACACCGATATATATA [CACACA_site4521] | 9.89 ± 0.33
27 | TATTTTTTTATTTGTGCATGTCATATTTAAACATAA [TGCATGCA_site1006] | 8.58 ± 0.4
28 | TGAATAATATACATACGTACATACATATATATAATA [XGTACX_site1302] | 8.87 ± 0.56
29 | ATAAAAAGGAAACACACACACACACCCATATATATA [CACACA_site904] | 10.41 ± 0.042
30 | TTATCACATAAACGATGTACGTACTAGGTTTTTTTT [XGTACX_site2147] | 8.79 ± 0.42
31 | TTTTTTTTTTTTTTTTTTTTCATTCAATTATATTTA [CACACA_negctrl_site712] | 8.32 ± 0.45
32 | AACTAATATAATAATACATGCACATAAAAATATATA [TGCATGCA_site606] | 8.9 ± 0.4
33 | AAAGGAATATAATGATGTACACAAATATATATACAT [XGTACX_site5347] | 9.05 ± 0.46
34 | TTTACTTTTTTTTCTTGTACTCATACATACTATCAT [XGTACX_site4919] | 8.85 ± 0.54
35 | AAATTTCAATAATCTACACACATAAAAAAACAAAAG [CACACA_site1702] | 9.05 ± 0.42
36 | GGCAACAATGTAGATTGTACATATGAATTTTACAAT [XGTACX_site5655] | 8.86 ± 0.42
37 | ATATATATTATCATTGTGCACTTATTTATATACCTT | 9.31 ± 0.47
38 | ATATTTTGTTTTATAGTGCACATGGGCATATATTAA [GTGCAC_site9435] | 8.74 ± 0.39
39 | ATATTTTATTATTGTTGTACTTTTTTTTTTTGATTG [XGTACX_site4091] | 8.85 ± 0.49
40 | ATAATATGAAAACACACACACACACTAATAAAAAAA [CACACA_site8617] | 10.3 ± 0.16
41 | CATGCAAAAAATTCCACACACACACCCACATATAAA [CACACA_site1229] | 9.73 ± 0.16
42 | TATATACAAAATGCCTGTACATATATATTTATTTAT [XGTACX_site761] | 8.85 ± 0.35
43 | CTTTCTTATTTGAACGCATGCATTTGTACCTTTTAT [TGCATGCA_site671] | 9.22 ± 0.43
44 | ACCTACATAACATACACACGCATATATATAATTTTA [CACACA_site2847] | 9.22 ± 0.33
45 | TATTTAATAAAGAAATAAAAATAAAGAAAAAAAAAA [CACACA_negctrl_site74] | 8.29 ± 0.57
46 | AATTATTTATCGGAATGTACATAAAAACATATGTAT [XGTACX_site7443] | 8.7 ± 0.4

Row | Sequence | gcPBM binding intensity (ln)
47 | AATAATATCATTTAGACACACACTCTTACAATATGT [CACACA_site8832] | 9.21 ± 0.38
48 | AATAGCCCATATGGAATACACACTGAAAATAAAAAA [CACACA_site3373] | 9.07 ± 0.57
49 | ATTTGTAATTTATATTCACACATTCAAAAAAATGAG [CACACA_site6057] | 8.41 ± 0.29
50 | TATAAATTTGTTGTTGCATGCAGTATACCAAAAAAA [TGCATGCA_site445] | 8.84 ± 0.4
51 | AAAAATATAATATAATGTACACAAAAAAAAAAAAAT [XGTACX_site4914] | 9.04 ± 0.49
52 | TAAAATGTAATCTGAACACACATATTTTTTTAATAT [CACACA_site1768] | 8.68 ± 0.45
53 | GTATTATATTTCAACTGTACGTAAAACTATTAAAAT [XGTACX_site3679] | 8.63 ± 0.3
54 | CAAAAAAATGTGAAGGCATGCAAATATGTAAAATAA [TGCATGCA_site921] | 9.68 ± 0.67
55 | ATAAAGCCATACAATACACACATTTTACATGGGGGT [CACACA_site9072] | 9.45 ± 0.099
56 | TTCATTTAGCAAGAATGTACTTATATATATATATAT [XGTACX_site3401] | 8.95 ± 0.085
57 | CCATAAAAAGGATACACACACACACCGACATATATA [CACACA_site4653] | 10.2 ± 0.23
58 | TTTGAAAAGTATGAGGTGCAAAAAATGTAATGAAAT | 9 ± 0.52
59 | CATTTTAAAACAGACACACACCAAAAAAAAAAAAAA [CACACA_site6259] | 9.04 ± 0.49
60 | TTTTTCTGTCGTTGTTGTACTTGAGGAGTAACAATT [XGTACX_site7852] | 8.81 ± 0.38
61 | TATATTATTATGCATAGTACGTACTGTGATAAGAAT [XGTACX_site2956] | 8.88 ± 0.3
62 | TACAAATACATTACATGTACATATTTAATAATATCA [XGTACX_site2075] | 8.71 ± 0.45
63 | TTTTCAATTAATAATACACACATGTATATATTATTA [CACACA_site3311] | 8.8 ± 0.29
64 | AAGAAAAATATATATATAAATAAATAAATATATATA [TGCATGCA_negctrl_site330] | 8.59 ± 0.44
65 | TTTCTGATATTTTTATATTTTCTTATATATATATAT [GTGCAC_negctrl_site652] | 8.77 ± 0.52
66 | TTTAAATTTTAATATGCACACAAAATGTTATATTAA [CACACA_site8015] | 8.64 ± 0.46
67 | GTATATAAGTATATATGTACATATATTTTATATATA [XGTACX_site4745] | 8.7 ± 0.42
68 | ATATAAGAATAAATAGTGCAAAATAAATGATTATTT | 8.96 ± 0.46
69 | AATACGAAGGATAAGAGTACTAATTAAATAAATGAA [XGTACX_site523] | 8.92 ± 0.58

Row | Sequence | gcPBM binding intensity (ln)
70 | TTTTTTTTTTTTTTGGTGCGATCTTTTAAATGATCC | 8.5 ± 0.48
71 | TTTTATAATTTAAAATAATGAAACTTCTTTCTATTT [TGCATGCA_negctrl_site324] | 8.14 ± 0.56
72 | GCCTTTTTATTTAGAACACACACAAAAAAAAAAAAA [CACACA_site8520] | 8.77 ± 0.35
73 | TATTATATCGAACACTGTACTTTTTTATTCAACCTA [XGTACX_site493] | 8.65 ± 0.51
74 | ATATATATATATATAGTGCAAATATCTTCTTTATAA | 9.12 ± 0.11
75 | TAATAAACCAAACTAAACAATATATCAAAAAGCACA [CACACA_negctrl_site269] | 8.9 ± 0.42
76 | AATAATAAATATATATATATATATATATATATATTT [CACACA_negctrl_site786] | 9.04 ± 0.21
77 | TGACTACATAAAATGACACACACAAACTTTAAAATT [CACACA_site9151] | 9.28 ± 0.34
78 | ATATATTTTTAGCACAGTACAATATAATTAAATATA [XGTACX_site6779] | 8.6 ± 0.35
79 | ATATGCTAATAAAATTGTACATATTATTCATATTGT [XGTACX_site2344] | 8.77 ± 0.48
80 | CAATTAAAGAAAAACAGTACGTGTATCAAACATCCT [XGTACX_site8990] | 8.89 ± 0.49
81 | ATTTTTCCTCTCTTTTGTACTTATATATATATATAT [XGTACX_site7405] | 9.25 ± 0.42
82 | ATAAATACTTTTTGGTGTACACTTTTAAATGAAAAA [XGTACX_site3042] | 8.39 ± 0.42
83 | ATATTATATAATAATGCATGCACCTTATTTTCATTT [TGCATGCA_site405] | 9.26 ± 0.28
84 | AACAAAATAAAAATAACACACACATTTATATATATA [CACACA_site8313] | 9.43 ± 0.33
85 | ATTATATTATTTTAAAGTACACACATATATTAATAT [XGTACX_site4769] | 8.93 ± 0.31
86 | AAAAGTTGTTTATAATGTACAAGGTAGAAAAAAACA [XGTACX_site1454] | 8.78 ± 0.38
87 | TAAATGGATTGTTCAGGTACACATAAATATGATATT [XGTACX_site6963] | 8.66 ± 0.45
88 | TAAAAATAATATATTTGTACATATGTGTATACATAA [XGTACX_site741] | 8.54 ± 0.4
89 | TCCTAAAAAAAAAAAAAAAATGAAAAAGGAAAAAAA [CACACA_negctrl_site1646] | 8.29 ± 0.63
